Source: the supplement of paper PMC3334620
Whole data set: some 33,000 sequences, median “E-score (-0.5 to 0.5)” near -0.011, cut for the highest 2% near 0.28. This is one part of the list.

Target: T1, Gcr1 (UniProt P07261)
T1 sequence: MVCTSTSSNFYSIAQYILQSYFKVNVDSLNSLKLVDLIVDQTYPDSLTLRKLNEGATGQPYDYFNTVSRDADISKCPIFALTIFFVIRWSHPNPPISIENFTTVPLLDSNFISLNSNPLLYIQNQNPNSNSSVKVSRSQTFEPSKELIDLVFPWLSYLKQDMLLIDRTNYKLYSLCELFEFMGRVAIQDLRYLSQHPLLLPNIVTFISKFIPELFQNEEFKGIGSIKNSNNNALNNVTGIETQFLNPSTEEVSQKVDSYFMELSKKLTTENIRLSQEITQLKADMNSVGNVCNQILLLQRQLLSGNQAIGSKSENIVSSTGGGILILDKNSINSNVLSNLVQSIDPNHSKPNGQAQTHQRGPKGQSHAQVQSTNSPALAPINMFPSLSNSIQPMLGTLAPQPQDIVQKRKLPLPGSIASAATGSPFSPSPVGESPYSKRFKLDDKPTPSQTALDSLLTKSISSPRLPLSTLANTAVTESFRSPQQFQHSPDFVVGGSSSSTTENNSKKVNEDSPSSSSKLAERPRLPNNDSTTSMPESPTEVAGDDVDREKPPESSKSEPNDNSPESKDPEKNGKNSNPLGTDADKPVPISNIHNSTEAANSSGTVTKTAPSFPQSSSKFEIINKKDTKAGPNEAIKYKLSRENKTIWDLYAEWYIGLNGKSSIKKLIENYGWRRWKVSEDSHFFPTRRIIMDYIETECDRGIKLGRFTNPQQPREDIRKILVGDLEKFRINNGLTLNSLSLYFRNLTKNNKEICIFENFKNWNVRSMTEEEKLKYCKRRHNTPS
Experiment: PBM E-score (8-mer binding enrichment) (E-score (-0.5 to 0.5)); higher = stronger / more preferred TF binding; most listed sequences are background and not binding sites
Settings: protein concentration: 100 nM; construct: GST-full length
Protocol: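 Universal 'all 10-mer' protein binding microarrays (Agilent AMADID 015681) probed with GST-tagged S. cerevisiae TFs (full-length or DBD) made by in vitro transcription/translation (PURExpress), about 100-200 nM. Bound TF was detected with fluorescent anti-GST. Each ungapped 8-mer (which stands for itself and its reverse complement) is scored by the PBM enrichment score (E-score), a modified Wilcoxon-Mann-Whitney statistic from -0.5 to +0.5, computed with the Universal PBM Analysis Suite. Scale: above 0.35 generally sequence-specific binding.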

Sequence | PBM E-score
GCGTGGGA | -0.213
CCAAACAC | -0.104
AAAGCGAG | 0.238
AAGACCTG | -0.116
CACCCCCA | -0.122
CGAAAGGA | -0.0964
AAAGCACG | 0.0871
GCATTCTA | -0.0877
TGAATACA | 0.199
AAAAGTCT | -0.222
AACGTAAC | -0.0742
CATCAAGA | 0.0812
AGCATGGA | -0.232
AGCGACAG | -0.106
CAAAATAG | 0.259
CCTATAAC | 0.0176
CCGAGTAC | 0.034
AGAGCATC | 0.133
GGCGGCGA | 0.0796
TACGGCGA | -0.00837
GTACAATA | -0.0357
CAGGGCAA | -0.124
AGTCAACA | 0.116
GGGGGCAA | -0.121
ACTCCCTG | -0.156

Sequence | PBM E-score
CAGACCTC | -0.255
AAGTCGTA | -0.0401
ATATATCG | 0.094
ATGCAGTC | -0.0604
ACAACAAT | -0.0494
GATCTCCC | -0.0795
GGCGCTCA | 0.032
CTAACAGA | 0.172
AGCTATTC | -0.136
ACTTGGCT | 0.127
CACCCGAG | 0.0333
AATAAATA | 0.17
GGTGAAAA | 0.0519
CGCAGAGA | -0.257
GCTAGTCA | 0.108
AGCGACTC | -0.156
GTGGTGTA | -0.109
AGAAGCCG | 0.399
CCCAAGAG | 0.0633
AGGGCACC | 0.13
TGAGTTAA | -0.314
AATAAAGG | 0.217
AGCTCCTG | 0.0278
ACAGATCT | -0.232
AAGGTCGC | 0.0942

Sequence | PBM E-score
CTATTCAG | 0.0145
AAGGCAAC | 0.0785
ACGGGACA | -0.0161
CAGATTTA | 0.0919
ACCGCCTC | -0.14
AAAGATAC | 0.203
AATCACCC | -0.169
GCTGTAAC | -0.00592
AGAGGGGC | -0.044
ATGCCAGA | 0.167
CGGGCGCC | 0.421
AGTTGGCC | -0.15
GCTTCCAC | 0.42
ACCAAACT | 0.0265
ACCATGAA | 0.0954
GTGCATAA | -0.0455
GTGGTCCA | 0.109
ATATATCA | -0.112
GCCCAAGA | 0.0111
AAGATCCT | 0.0935
AATTGAGG | 0.236
AGTAACTA | 0.0992
CAAATAAG | 0.115
ACACCCAC | 0.0847
CCTCGGCC | -0.196

Sequence | PBM E-score
CGTTATAC | -0.0132
TTAAAGAA | 0.126
CATCCGGC | -0.0247
TAAGGGAA | 0.0495
CATTCAAC | -0.143
ATTAGATG | 0.118
GAGACACA | -0.0726
AAAAACTA | 0.133
ACTTCAAC | -0.0331
GTCGCCGA | 0.24
AACCCGTC | -0.132
GCAGTAAC | -0.0527
ATACTCTA | -0.153
CAGTAATG | 0.0898
TACCGCTA | 0.0898
TAGCCGAA | 0.0835
CGTGTGGA | 0.0437
CTTAGTCC | -0.0337
TCACTAGA | 0.0498
AGAACCGC | 0.0903
AGACACTC | -0.168
GCGGATGA | -0.145
CTGATGAC | 0.0532
ACCAATCT | 0.0812
GTGGATCA | 0.0278

Sequence | PBM E-score
ACACCTCC | -0.254
AGGCGTTG | -0.036
CATGAGAG | -0.119
ACCCTCGC | -0.0776
ATACAATA | -0.0401
AAAAAACG | 0.0715
CAGATTCC | 0.388
CGCTAATC | 0.125
CCGTTAGC | 0.146
AAGCAACT | -0.094
CTATCGCC | -0.00847
CGGTGATA | -0.0221
AACCTCCC | -0.123
GGAATTTA | 0.0917
AGTAGTTG | 0.245
CTGACCTC | -0.103
GTGAAAGA | 0.0445
TACCGCGA | -0.0665
AAATCGTG | 0.226
CAAGGAAG | 0.143
GAGATACC | 0.175
ATCCCTTG | -0.198
GTAGGGCA | -0.133
TGAGTGAA | -0.125
GATGTCCA | 0.131

Sequence | PBM E-score
GCCGGACC | -0.114
CTTGTATC | 0.0702
CACCTCAC | -0.132
ATCAGAAG | 0.158
AGGCAGCG | 0.0171
CTTTTACA | 0.23
ACATGAGG | 0.0641
CATTAGTC | -0.0348
ACCGTTGG | -0.0812
ACGGCGCA | -0.265
GGTGTAAC | -0.0231
CGAAAGAC | -0.0893
ACGGGGTC | -0.0236
ATTCAGCC | 0.0229
ATCCCACA | 0.0178
CCCACGGC | -0.111
ATGCACGG | -0.235
GAAAGAGC | -0.152
CCCAAACG | -0.0346
AGGGTCTA | -0.279
GAATATGA | 0.164
GCAGGCCA | -0.185
AAATGACG | -0.0759
CGAGGTAG | -0.17
CTCAACGC | -0.113

Sequence | PBM E-score
AACCTGAG | 0.0471
GCACCTCA | 0.114
CATCTTAA | 0.00345
CGCTTCAG | 0.0898
GTCTACTA | 0.125
ACAACGGC | -0.109
ATGATGAG | -0.104
CAGCACGC | -0.197
CGCACCCA | 0.236
ACGTTATA | -0.056
CCAGGATA | 0.00241
CATGCGGA | 0.0299
AGTGCACC | -0.123
ACACACAG | -0.0596
AAGGCGGA | 0.00504
GTAGTTGA | 0.0635
CGTCGACG | -0.0825
AAGGGAGG | -0.112
AGTGCATC | -0.128
ACAACCCA | -0.0863
GGGCAGCA | 0.142
CCGACCAA | -0.0956
